Where “and” joins values, the source holds several entries; their conditions need not be identical. Equal entries are not always repeated. This list was built around the results that the source calls inconclusive (neither active nor inactive); the mix of calls is not that of the screen. Where the call is inconclusive, the potency comes from a doubtful curve fit. A structure can be active in one record and inactive in another. Calls of active or inactive are those of the source. Unless noted, calls come from the whole dose curve; as a rule, active = well fitted curve in the direction sought with a large enough effect in the repeat runs; inconclusive = weak or mixed curves; inactive = no such curve, though single readings can be large; an effect the other way counts as inactive or inconclusive.
Assays:
[1] = qHTS assay to identify small molecule antagonists of the peroxisome proliferator-activated receptor gamma (PPARg) signaling pathway - cell viability counter screen (AID 743194); conditions: PPARg-bla HEK293H viability, CellTiter-Glo luminescence, 17 h; Potency: co-treated with 50 nM rosiglitazone unless noted; activity change, negative = cytotoxicity: at 62.6 µM (top of the series), co-treated with 50 nM rosiglitazone unless noted; note: nearly all actives have a fitted effect of over 55% in size; for activity change, negative = cytotoxicity: % is set by controls: 0 for no effect and ±100 for the full control effect
Procedure, shortened: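 Viability was measured as CellTiter-Glo luminescence in GeneBLAzer PPARg UAS-bla HEK293H cells. These cells had been exposed 17 h at 37 C to compounds together with rosiglitazone at 50 nM final, with the beta-lactamase readout taken in the same wells.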

[2] = qHTS assay for small molecule agonists of the antioxidant response element (ARE) signaling pathway (AID 743202; active = well fitted activation curve with a large enough effect in the signal ratio in the repeat runs, not every such curve was filed as active; inconclusive = weak or mixed curves, or effect the other way; inactive = no such curve, though single readings can be large or run the other way; the % refers to the signal ratio; for activation: % is set by controls: 0 for no effect and ±100 for the full control effect); conditions: HepG2 ARE-bla reporter, beta-lactamase FRET, 16 h
Procedure, shortened: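 Quantitative high-throughput format in HepG2 cells bearing an integrated ARE-beta-lactamase reporter. Compound exposure lasted 16 h at 37 C, and fluorescence was read 2 h after adding LiveBLAzer B/G substrate at room temperature.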

[3] = qHTS assay for small molecule agonists of the antioxidant response element (ARE) signaling pathway - cell viability counter screen (AID 743203; calls by dose curve; note: nearly all actives have a fitted effect of over 55% in size); conditions: ARE-bla HepG2 viability, CellTiter-Glo luminescence, 16 h; viability change, negative = cytotoxic: at 73.3 µM (top of the series)
Procedure, shortened: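 Cells (ARE-bla HepG2, 2,000/well) receive DMSO-dissolved compounds after a 5 hrs rest. Plates incubate 16 hrs at 37C/5% CO2. CellTiter-Glo luminescence is then recorded after 30 min at room temperature.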

[4] = qHTS assay for small molecule activators of the heat shock response signaling pathway (AID 743210; active = well fitted activation curve with a large enough effect in the signal ratio in the repeat runs, with a control signal flat, not every such curve was filed as active; inconclusive = weak or mixed curves; the % refers to the signal ratio;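 for activation: HeLa cells with beta-lactamase reporter driven by heat shock elements; % is set by controls: 0 for no effect and ±100 for the full control effect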); conditions: HeLa HSE-bla reporter, beta-lactamase ratio, 5 h; activation: at 62.6 µM (top of the series) unless noted
Procedure, shortened: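 HeLa HSE-bla cells, overnight plating; cpd in DMSO 5 h, 37 C; LiveBLAzer B/G FRET substrate 2.5 h RT; fluorescence intensity read.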

[5] = qHTS assay for small molecule activators of the heat shock response signaling pathway - cell viability counter screen (AID 743209); conditions: HSE-bla HeLa viability, CellTiter-Glo luminescence, 5 h; activity change, negative = cytotoxicity: at 62.6 µM (top of the series) unless noted; note: nearly all actives have a fitted effect of over 50% in size
Procedure, shortened: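 Quantitative HTS format, Tox21 10K library. HeLa cells carrying an HSE-driven beta-lactamase reporter were treated 5 h at 37 C, then assessed for viability by CellTiter-Glo luminescence.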

[6] = target: Peroxisome proliferator-activated receptor delta (Homo sapiens) (UniProt Q03181); assay: qHTS assay to identify small molecule agonists of the peroxisome proliferator-activated receptor delta (PPARd) signaling pathway (AID 743212; calls by dose curve; for activation: % is set by controls: 0 for no effect and ±100 for the full control effect); conditions: HEK293H PPARd-UAS-bla, beta-lactamase FRET ratio, 17 h; activation: at 62.6 µM (top of the series) unless noted
Procedure, shortened: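 HEK293H PPARd-bla cells; 5 h preincubation 37 C/5% CO2; compound (DMSO) 37 C; LiveBLAzer B/G FRET substrate 2 h RT; fluorescence intensity.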

[7] = qHTS assay to identify small molecule agonists of the peroxisome proliferator-activated receptor delta (PPARd) signaling pathway - cell viability counter screen (AID 743211); conditions: PPARd-bla HEK293H viability, CellTiter-Glo luminescence, 17 h; activity change, negative = cytotoxicity: at 62.6 µM (top of the series); note: nearly all actives have a fitted effect of over 55% in size
Procedure, shortened: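 HEK293H PPARd-bla, 3000 cells/well; 5 h preincubation 37C/5% CO2; cpd in DMSO, 17 h 37C; B/G FRET substrate 2 h RT; CellTiter-Glo 30 min RT, luminescence.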

[8] = qHTS assay to identify small molecule antagonists of the peroxisome proliferator-activated receptor delta (PPARd) signaling pathway - cell viability counter screen (AID 743213); conditions: PPARd-bla HEK293H viability, CellTiter-Glo luminescence, 17 h; viability change, negative = cytotoxic: at 62 µM (top of the series) unless noted; note: nearly all actives have a fitted effect of over 50% in size
Procedure, shortened: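 CellTiter-Glo was added to PPARd-bla HEK293H wells following 17 h compound treatment in the presence of 300 nM L165041. Luminescence was recorded after 30 min at room temperature.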

[9] = target: Peroxisome proliferator-activated receptor delta (Homo sapiens) (UniProt Q03181); assay: qHTS assay to identify small molecule antagonists of the peroxisome proliferator-activated receptor delta (PPARd) signaling pathway (AID 743215; active = well fitted inhibition curve with a large enough effect in the signal ratio in the repeat runs, not every such curve was filed as active; inconclusive = weak or mixed curves, or effect the other way; inactive = no such curve, though single readings can be large or run the other way; the % refers to the signal ratio;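 note: cells stimulated with agonist L165041 at 300 nM final during compound exposure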); conditions: HEK293H PPARd-UAS-bla, beta-lactamase FRET ratio, antagonist, 17 h; ratio activity, negative = inhibition: at 62 µM (top of the series) unless noted
Procedure, shortened: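 Antagonist-mode beta-lactamase reporter screen: HEK293H cells with UAS-bla under PPARd control, stimulated by 300 nM L165041 (final) alongside test compound for 17 h at 37 C, then FRET fluorescence after 2 h substrate incubation.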

[10] = target: Bile acid receptor (Homo sapiens) (UniProt Q96RI1); assay: qHTS assay to identify small molecule antagonists of the farnesoid-X-receptor (FXR) signaling pathway (AID 743217; active = well fitted inhibition curve with a large enough effect in the signal ratio in the repeat runs, not every such curve was filed as active; inconclusive = weak or mixed curves, or effect the other way; inactive = no such curve, though single readings can be large or run the other way; the % refers to the signal ratio); conditions: HEK293T FXR-UAS-bla, beta-lactamase ratio, CDCA-stimulated, 16 h; activity change, negative = inhibition: at 62.6 µM (top of the series) unless noted
Procedure, shortened: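 Beta-lactamase reporter under UAS control in HEK 293T cells; compound exposure 16 h at 37 °C in the presence of chenodeoxycholic acid (50 uM final); signal from B/G FRET substrate after 2 h at room temperature.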

[11] = activation: at 73.3 µM (top of the series) unless noted
Potency is the fitted concentration of half-maximal effect; tags give direction and shape of the fitted curve or compound fluorescence and quenching.

Sequence of UniProt Q03181 (Q03181 whole entry, looked up): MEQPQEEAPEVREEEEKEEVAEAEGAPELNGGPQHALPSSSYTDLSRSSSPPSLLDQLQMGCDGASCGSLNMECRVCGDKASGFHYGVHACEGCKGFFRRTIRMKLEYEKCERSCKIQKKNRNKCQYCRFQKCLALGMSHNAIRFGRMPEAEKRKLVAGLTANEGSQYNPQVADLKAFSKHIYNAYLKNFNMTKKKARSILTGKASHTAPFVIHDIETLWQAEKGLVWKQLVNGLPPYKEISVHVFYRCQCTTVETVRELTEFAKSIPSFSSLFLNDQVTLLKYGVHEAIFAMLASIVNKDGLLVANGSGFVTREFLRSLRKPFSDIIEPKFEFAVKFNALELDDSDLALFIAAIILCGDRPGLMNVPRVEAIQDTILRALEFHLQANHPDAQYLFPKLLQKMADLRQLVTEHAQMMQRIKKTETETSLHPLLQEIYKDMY
Sequence of UniProt Q96RI1 (Q96RI1 whole entry, looked up): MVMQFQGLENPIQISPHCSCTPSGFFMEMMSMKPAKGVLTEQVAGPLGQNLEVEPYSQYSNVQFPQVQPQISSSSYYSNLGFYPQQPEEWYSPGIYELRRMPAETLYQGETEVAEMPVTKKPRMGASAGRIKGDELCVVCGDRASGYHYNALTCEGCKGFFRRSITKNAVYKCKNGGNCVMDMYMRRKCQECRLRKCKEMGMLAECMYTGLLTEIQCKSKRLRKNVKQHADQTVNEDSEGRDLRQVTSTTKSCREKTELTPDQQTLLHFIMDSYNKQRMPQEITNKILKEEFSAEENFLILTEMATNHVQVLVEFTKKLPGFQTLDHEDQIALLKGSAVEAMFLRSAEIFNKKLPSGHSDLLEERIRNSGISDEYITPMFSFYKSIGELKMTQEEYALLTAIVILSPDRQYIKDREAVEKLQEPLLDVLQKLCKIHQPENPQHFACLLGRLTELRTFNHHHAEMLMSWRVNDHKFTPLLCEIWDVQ

With `O=C(CCCN1CCC2(CC1)C(=O)NCN2c1ccccc1)c1ccc(F)cc1` the Potency [1] was “inactive”, the Potency [2, 11] was active: 2.98 µM and the Potency [3] was inconclusive: 4.22 µM [rising, partial curve, poor fit]. For the same molecule, the Potency [4] was “inactive”.

For `O=C(O)c1cc[c]([Hg][Cl])cc1`, the Potency [1] was active: 38.9 µM, the Potency [2, 11] was inconclusive: 27.3 µM [falling, partial curve] and the Potency [3] was active: 54.5 µM. The Potency [5] was inconclusive: 61.6 µM [cytotoxic], the Potency [4] was inconclusive: 36 µM and the activation [6] was inconclusive: 3.47%.

For `C[C@@H]1CC[C@@]2(OC1)O[C@H]1[C@@H](O)[C@H]3[C@@H]4CC[C@H]5C[C@@H](O[C@@H]6O[C@H](CO)[C@H](O[C@@H]7O[C@H](CO)[C@@H](O)[C@H](O[C@@H]8OC[C@@H](O)[C@H](O)[C@H]8O)[C@H]7O[C@@H]7O[C@H](CO)[C@@H](O)[C@H](O[C@@H]8O[C@H](CO)[C@@H](O)[C@H](O)[C@H]8O)[C@H]7O)[C@H](O)[C@H]6O)[C@H](O)C[C@]5(C)[C@H]4CC[C@]3(C)[C@H]1[C@@H]2C`, the Potency [1] was active: 23.2 µM, the Potency [2, 11] was inconclusive: 10.3 µM [falling, partial curve] and the Potency [3] was active: 20.5 µM. For the same molecule, the Potency [5] was active: 29.2 µM, the Potency [4] was inconclusive: 32.8 µM and the Potency [7] was active: 5.83 µM. For the same molecule, the Potency [6] was inconclusive: 46.3 µM [falling, partial curve], the Potency [8] was active: 4.63 µM and the Potency [9] was inconclusive: 58.3 µM [cytotoxic]. The Potency [10] was inconclusive: 58.3 µM [cytotoxic].

For `CCCCOCN(C(=O)CCl)c1c(CC)cccc1CC`, the Potency [1] was “inactive”, the Potency [2, 11] was inconclusive: 8.63 µM [falling, partial curve, poor fit] and the Potency [3] was active: 48.6 µM. For the same molecule, the Potency [4] was inconclusive: 5.09 µM, the Potency [7] was inconclusive: 49 µM [cytotoxic] and the Potency [6] was inconclusive: 54.9 µM [rising, partial curve]. For the same molecule, the Potency [8] was inconclusive: 54.9 µM [cytotoxic, single point] and the Potency [9] was inconclusive: 24.5 µM [rising, partial curve].

With `O=[N+]([O-])c1ccc(Nc2ccccc2)cc1` the Potency [1] was inconclusive: 69.7 nM [cytotoxic, full curve, poor fit] and inconclusive: 43.6 µM [cytotoxic, partial curve, poor fit], the activation ([2]; at 73.3 µM (top of the series)) was inconclusive: -110% and the activation ([2]; at 94.8 µM (top of the series)) was inconclusive: 5.45%. For the same molecule, the Potency [3] was inconclusive: 69.1 µM [cytotoxic] and active: 34.4 µM, the Potency [5] was active: 27.5 µM and the Potency [4] was inconclusive: 46.2 µM. The Potency [10] was inconclusive: 49.4 µM and inconclusive: 43.6 µM [partial curve].

With `CCC[CH2][Sn]([Cl])([Cl])[CH2]CCC` the Potency [1] was active: 882 nM and active: 43.6 nM, the Potency [2, 11] was inconclusive: 552 nM [falling, full curve] and inconclusive: 30.6 nM [falling, full curve] and the Potency [3] was active: 276 nM and active: 34.4 nM. The Potency [5] was inconclusive: 99 µM [cytotoxic, partial curve, poor fit] and active: 54.9 nM, the Potency [4] was inconclusive: 4.77 µM and inconclusive: 2.03 µM and the Potency [6] was inconclusive: 176 nM [rising, full curve, poor fit] and inconclusive: 9.77 µM [falling, full curve, poor fit]. For the same molecule, the Potency [8] was active: 556 nM and active: 155 nM.

With `c1ccc(C2CC2)c(OCC2=NCCN2)c1` the Potency [1] was “inactive”.

For `Nc1ccc([N+](=O)[O-])cc1`, the Potency [1] was inconclusive: 0.0155 µM [cytotoxic, full curve, poor fit], the Potency [2, 11] was inconclusive: 17.2 µM [phenotype inactive, full curve] and the Potency [3] was inconclusive: 68.6 µM [cytotoxic]. The Potency [5] was inconclusive: 49 µM [cytotoxic, partial curve], the Potency [4] was inconclusive: 14.2 µM and the Potency [7] was inconclusive: 30.9 µM [cytotoxic, partial curve, poor fit]. The Potency [8] was inconclusive: 61.6 µM [cytotoxic] and the activity change, negative = inhibition [10] was inconclusive: 0.153% [at 81.1 µM].

For `ClC1=C(Cl)C2(Cl)C3C(Cl)C=CC3C1(Cl)C2(Cl)Cl` (centres undefined), the Potency [1] was active: 55.2 µM and active: 24.5 µM, the Potency [2, 11] was inconclusive: 61.4 µM [falling, single point] and the activation [2, 11] was inconclusive: 35.5%. For the same molecule, the Potency [3] was inconclusive: 68.9 µM [cytotoxic, single point] and active: 61.1 µM, the Potency [5] was inconclusive: 55.2 µM [cytotoxic] and inconclusive: 54.9 µM [cytotoxic, single point] and the Potency [4] was inconclusive: 55.2 µM [single point] and inconclusive: 61.6 µM. For the same molecule, the Potency [7] was inconclusive: 55.2 µM [cytotoxic, single point] and active: 38.9 µM and the activation [6] was inconclusive: 15.2%.
